# Reference: paper PMC4336329 (PLoS ONE, 2015)
# Out of some 310,000 compounds screened, about 2,200 (0.71%) showed an effect of 50% or more. The effect is printed as a negative number. The list shows a part of the results.
# Target: human ether-à-go-go-related gene (hERG) potassium channel (human, UniProt Q12809)
# Test: primary screen, population patch clamp on CHO cells stably expressing hERG
# Chain of human ether-à-go-go-related gene (hERG) potassium channel (Q12809 whole entry, looked up): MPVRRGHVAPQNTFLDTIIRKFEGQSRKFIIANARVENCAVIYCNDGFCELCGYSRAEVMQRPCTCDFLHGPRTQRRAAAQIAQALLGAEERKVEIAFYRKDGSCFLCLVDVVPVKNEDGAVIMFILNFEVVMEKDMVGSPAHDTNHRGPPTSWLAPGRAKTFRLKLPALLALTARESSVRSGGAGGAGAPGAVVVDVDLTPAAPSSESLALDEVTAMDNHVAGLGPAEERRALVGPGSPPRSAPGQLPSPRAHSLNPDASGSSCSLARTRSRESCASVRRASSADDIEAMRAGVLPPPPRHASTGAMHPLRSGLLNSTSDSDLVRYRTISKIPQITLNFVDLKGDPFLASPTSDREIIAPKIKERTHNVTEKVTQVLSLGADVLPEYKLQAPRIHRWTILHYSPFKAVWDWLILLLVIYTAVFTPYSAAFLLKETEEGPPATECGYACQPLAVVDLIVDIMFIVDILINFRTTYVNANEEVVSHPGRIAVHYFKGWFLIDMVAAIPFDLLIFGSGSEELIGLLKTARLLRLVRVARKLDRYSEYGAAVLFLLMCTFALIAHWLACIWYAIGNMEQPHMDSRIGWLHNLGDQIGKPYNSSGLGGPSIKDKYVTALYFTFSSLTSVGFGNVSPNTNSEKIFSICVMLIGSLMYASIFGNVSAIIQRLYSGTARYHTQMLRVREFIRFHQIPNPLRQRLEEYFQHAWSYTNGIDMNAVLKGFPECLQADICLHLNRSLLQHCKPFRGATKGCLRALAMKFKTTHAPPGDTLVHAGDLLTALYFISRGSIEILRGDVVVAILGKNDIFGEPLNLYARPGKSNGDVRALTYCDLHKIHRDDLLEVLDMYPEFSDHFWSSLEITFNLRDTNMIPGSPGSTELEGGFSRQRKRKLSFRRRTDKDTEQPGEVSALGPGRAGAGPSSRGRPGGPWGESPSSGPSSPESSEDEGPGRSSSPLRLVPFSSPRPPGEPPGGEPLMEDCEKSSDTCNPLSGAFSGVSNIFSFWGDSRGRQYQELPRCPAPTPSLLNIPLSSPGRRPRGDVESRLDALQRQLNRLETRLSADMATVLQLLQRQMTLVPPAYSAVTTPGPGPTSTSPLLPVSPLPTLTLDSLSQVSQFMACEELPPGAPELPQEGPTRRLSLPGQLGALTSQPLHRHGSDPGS
row,Compound,"hERG current change (%, negative = inhibition) at 1uM [%]"
1,Nc1c(N(C(=O)Nc2ccc(Cl)c(Cl)c2)C2CCCC2)c(=O)[nH]c(=O)n1Cc1ccccc1,11.5
2,COc1ccc(N2CCN(CCNC(=O)Nc3cccc(C)c3C)CC2)cc1,13.6
3,Cc1c([N+](=O)[O-])c(N)nn1C,16.1
4,O=C(N/N=C/c1cccc([N+](=O)[O-])c1)c1cc2ccccc2o1,27.7
5,Cc1ccc(OCCOc2ccc(Br)cc2/C=N\NC(N)=O)cc1,10.4
6,COc1cccc(NC(=O)/C=C/c2ccc([N+](=O)[O-])cc2)c1,2.96
7,CC(NC(=O)c1ccccc1NS(C)(=O)=O)c1ccccc1 (centres unmarked),4.52
8,CSCCC(NC(N)=O)C(=O)N(C)CC(=O)Nc1cc(C)ccc1C (centres unmarked),7.13
9,CC(C)(C)OC(=O)COc1cc(F)ccc1[N+](=O)[O-],8.04
10,COc1cccc(NC=C2C(=O)OC3(CCCCC3)OC2=O)c1,3.18
11,Cc1ccc(NC(=O)NCC2CCN(Cc3cccc(Cl)c3)CC2)c(Cl)c1,-28.5
12,Cc1ccc(-c2nnc(CSc3nnc(COc4cccc5ccccc45)n3-c3ccccc3)o2)cc1,5.64
13,Cn1cc(C(=O)N2CCN(c3cccc(Cl)c3)CC2)c(=O)c2cc(S(=O)(=O)N3CCOCC3)ccc21,10.9
14,CCN1CCN(C(c2cc3cc4c(cc3[nH]c2=O)OCO4)c2nnnn2C(C)(C)CC)CC1 (centres unmarked),9.84
15,COc1cc(OC)cc(C(=O)NCc2n[nH]c(=S)n2-c2ccccc2)c1,12.3
16,CCOc1ccc(-c2noc(COC)n2)cc1OC,5.48
17,CC(NC(=S)Nc1ccc(F)cc1)c1ccccc1 (centres unmarked),12.4
18,C=CCc1ccccc1OCC(O)CN(CC)CC.Cl (centres unmarked),-0.033
19,COc1ccc(S(=O)(=O)N2CCC(C(=O)Nc3nnc(CCN4CCCCC4)s3)CC2)cc1,5.66
20,CCN(CC)CC(=O)Nc1ccc2c(c1)Nc1ccccc1CC2.Cl,2.56
21,O=C(CSCc1cccc(Br)c1)N/N=C/c1ccc2c(c1)OCO2,-2.15
22,O=C(N/N=C/c1ccc(O)c(O)c1)NC12CC3CC(CC(C3)C1)C2,7.25
23,Cc1ccc2nsnc2c1S(=O)(=O)N1CCOCC1,5.91

row,Compound,"hERG current change (%, negative = inhibition) at 1uM [%]"
1,Cc1ccc(N=C2NC(=O)/C(=C/c3cccnc3)S2)c(C)c1,2.8
2,Cc1onc(-c2ccccc2Cl)c1C(=O)OCC(=O)Nc1ccc2c(c1)OCO2,4.87
3,CCc1ccc(OCC(=O)N/N=C2\CC(=O)c3ccccc32)cc1,0.725
4,CN1C(=O)N2CN(C3CCCCC3)CN3C(=O)N(C)C1C23 (centres unmarked),12.3
5,Cc1ccc(NC(=S)NCc2ccc3c(c2)cc(C)n3C)c(C)c1,15.1
6,Cc1cccc(-n2ncc3c(NCc4ccccc4)ncnc32)c1,13.7
7,O=C(NC(=S)Nc1ccccc1N1CCCC1)c1ccc(-c2cccc([N+](=O)[O-])c2)o1,4.38
8,COc1ccc(NC(=O)NCC(C)CSc2ccc(C)cc2)c(OC)c1 (centres unmarked),10.3
9,CCOC(=O)COc1ccc(-c2nnc(-c3ccccc3)o2)cc1,5.38
10,Cc1cc(Br)ccc1OCCN1CC(C)OC(C)C1.O=C(O)C(=O)O (centres unmarked),0.357
11,CC1NCCC2(O)CCCCC12 (centres unmarked),-0.491
12,CSc1ccc(Cl)c(C(=O)OCC(=O)N2CCOCC2)c1,9.24
13,CCCc1c(O)nc(SCCN(CCC)CCC)[nH]c1=O.Cl,-0.2
14,C/C(=N\OC(=O)c1ccc(F)cc1)c1sc(-c2ccccc2)nc1C,8.62
15,CSc1nnc(SCC(=O)Nc2ccc3[nH]c(=O)[nH]c3c2)s1,11.2
16,Cc1ccc(C)c(NS(=O)(=O)c2c(C)nc3sccn3c2=O)c1,8.02
17,O=[N+]([O-])c1ccc2c(c1)C(N1CCOCC1)/C(=C/COc1ccc(F)cc1)O2 (centres unmarked),7.51
18,CC(C)CNC(=O)COc1cccc(C(=O)NCc2ccccc2)c1,11
19,CN(C)S(=O)(=O)N1CCN(C(=O)N2CCOCC2)CC1,10.2
20,CCCc1c(C(=O)N/N=C(\C)CCc2ccc(OC)cc2)nnn1-c1nonc1N,15.2
21,COc1cccc2c1O/C(=N\O)C(C(=O)Nc1cccc(Br)c1)C2 (centres unmarked),13
22,C/C(Cn1nnc2ccccc21)=N\OC(=O)c1cc(F)c(F)cc1Cl,-48.4
23,Cc1ccc(NC(=O)c2cc(C)nc3ccccc23)cc1,13

row,Compound,"hERG current change (%, negative = inhibition) at 1uM [%]"
1,CCCCN(CC)Cc1c(O)ccc2c3c(c(=O)oc12)CCC3,12.7
2,N#Cc1c(Cl)c(Cl)c2nnc(-c3ccc(Br)cc3)n2c1Cl,-7.42
3,O=C1CN(C(=O)c2ccc(Br)o2)C(c2ccccc2)c2cc(F)ccc2N1 (centres unmarked),-2.93
4,O=C1OCc2cc(-n3cccc3)ccc21,2.04
5,Nc1nncn1C(=O)CCCOc1ccccc1,13.7
6,O=c1[nH]c(=O)n(Cc2ccccc2)c(O)c1C=Nc1ccc(CN2CCOCC2)cc1,8.48
7,CC/C(=N\O)c1ccc(OC)c(OC)c1,17.6
8,Cc1ccc(-c2nc(NCCN(C)C)c3ccccc3n2)cc1,-1.07
9,O=C(NCCCn1ccnc1)c1nc(Cn2ccc([N+](=O)[O-])n2)no1,16
10,Fc1ccc(COc2ccc3ccccc3c2CNc2nn[nH]n2)cc1,11
11,O=C(CC1SC(=NCC2CCCO2)NC1=O)Nc1cccc2ccccc12 (centres unmarked),-7.94
12,CCOC(=O)NC(NC(=O)OCC)C(=O)c1ccccc1,0.77
13,CCOc1ccc(S(=O)(=O)c2c[nH]c3ccc(C)cc3c2=O)cc1,17
14,CCOC(=O)CCSc1nc(N2CCOCC2)c2c(c1C#N)CC(C)(C)OC2,-14.1
15,CC(C)(C)n1nnnc1C(c1ccc(C(F)(F)F)cc1)N(Cc1ccc(F)cc1)Cc1ccco1 (centres unmarked),11.7
16,CC(NC(=O)COc1ccc(-c2nnco2)cc1)c1ccc(Cl)cc1Cl (centres unmarked),3.25
17,COc1ccccc1CNC(=O)COc1cccc(-n2cnnn2)c1,7.09
18,COc1cc(C(=O)NCCC(C)C)ccc1OCc1ccc(Cl)cc1Cl,7.87
19,CCCCCCn1c(N2CCC(C)CC2)nc2c1c(=O)[nH]c(=O)n2C,0.341
20,Cc1ccc(N/C=C/C(=O)C(C)(C)C)c(O)c1,2.33
21,O=C(Cc1cccs1)N1CCN(c2ccc([N+](=O)[O-])cc2)CC1,-33
22,COc1ccc(CNC(=O)C2CCN(S(=O)(=O)N3CCC4(CC3)OCCO4)CC2)c(OC)c1,12
23,CC(Cc1nnc(SCC(=O)O)n1N)c1ccccc1 (centres unmarked),13.9

row,Compound,"hERG current change (%, negative = inhibition) at 1uM [%]"
1,O=C(c1ccccc1)c1ccc(OC(=O)C2CCCCC2)cc1,14
2,COc1ccccc1NC(=S)NCCc1ccc(Cl)cc1,13.5
3,COc1cc(OC)cc(C(=O)NC2CCN(CCCOc3ccccc3)CC2)c1,-41.2
4,CC1=C(C(=O)Nc2ccccc2)C(c2ccncc2)C(C#N)=C(SCC(=O)Nc2ccccc2)N1 (centres unmarked),3.98
5,CC1(C)CN=C(NCc2ccccc2)S1,11.7
6,CCCCn1c(C(C)NC(=O)CCC)nc2ccccc21 (centres unmarked),14.3
7,O=C(CCS(=O)(=O)c1ccccc1)Nc1nc2cc3c(cc2s1)OCCO3,7.21
8,O=C(Nc1nnc(-c2ccc(Cl)cc2)o1)Nc1ccccc1Cl,10.1
9,Cc1ccc(S(=O)(=O)N[C@H](C(=O)N2CCC(C(=O)NCC(=O)O)CC2)C(C)C)cc1,17.5
10,Cc1cccc(Oc2ccc(Cl)cc2N)c1,16.8
11,CC(C)Cn1c(N)c(C(=O)CSc2nccn2C)c(=O)n(C)c1=O,8.51
12,CCOC(=O)c1cc2c(ccn2C)n1CC(=O)N(Cc1ccccc1)c1ccc(F)cc1,5.88
13,Cc1cc(OCCOCCN2CCCC2)ccc1C(C)C,-22.6
14,CS(=O)(=O)N1CCC(C(=O)Nc2cccc(Cl)c2Cl)CC1,13.7
15,CCCCCNC(=O)c1ccc2c(=O)n(CCCOCC)c(=S)[nH]c2c1,7.15
16,CN(C)c1ccc(/C=N/NC(=O)c2ccco2)cc1,13.9
17,COc1ccccc1CC(=O)Nc1cccc(C)n1,14.5
18,C/C(CCc1ccc2c(c1)OCO2)=N\N=C1\NC(=O)CC(C(=O)Nc2ccc(Cl)cc2)S1 (centres unmarked),2.56
19,Cc1ccc(N=C2C(=O)Nc3c(C)cccc32)cc1,6.74
20,C/C(=N\NC(=S)NC(C)C)c1ccc(Cl)c([N+](=O)[O-])c1,11
21,COc1cccc(-c2nc(N3CCN(C)CC3)c3ccccc3n2)c1O,10.6
22,CCOCCN1CCN(C(=O)CN2CCCC2=O)CC1.O=C(O)/C=C\C(=O)O,5.33
23,Cc1ccccc1-c1nnc(SCCOc2ccc3c(C)cc(=O)oc3c2)o1,21.9
